In the supplement of paper PMC4967469 one finds AUC and IC50 data, which are given here for 7 cell lines.

The IC50 comes from the fitted curve, where viability falls to half of the control; a limit (>, <) means that the fit lies beyond the doses tested. AUC sums up the same curve from the lowest dose to the 256-fold higher top dose; the more sensitive the line, the further below 1. For some assays here: Where the top dose is marked as inferred, it comes from the curve model; the source does not state it. For some assays here: Where an entry number is given, a second screen of the drug exists; the two often differ. Where only a bound is given, the exact number is not on record here.

Common to all, as to experiment: Viability of human cancer cell lines after 72 h of drug (GDSC screen)
Compound in assay [1]: CCc1nc(N)nc(N)c1-c1ccc(Cl)cc1 [Pyrimethamine]
Conditions: top dose 20 µM; top dose inferred. How it is done:
(§1)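 Human cancer cell lines in 384-well plates, medium with 10% serum, drug for 72 h over a 256-fold dose range (nine 2-fold or five 4-fold steps up to the top dose). Adherent lines were fixed and stained with the nucleic acid dye Syto60, suspension lines read with resazurin; signal relative to control wells, capped at 0 and 100%. One two-parameter sigmoid per drug and line, fitted in a mixed model over all curves with the slope shared within a line.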

Compound in assay [2]: C[C@@H](N)c1ccc(C(=O)Nc2ccnc3[nH]ccc23)cc1 [Y-39983]
Conditions: top dose 20 µM; top dose inferred. How it is done: as §1

Compound in assay [3]: CC(C)CC(=O)Nc1n[nH]c2c1CN(C(=O)C1CCN(C)CC1)C2(C)C [PHA-793887]
Conditions: top dose 10.24 µM. How it is done:
as §1

Compound in assay [4]: C/C(=C\c1csc(C)n1)[C@@H]1C[C@@H]2O[C@]2(C)CCC[C@H](C)[C@H](O)[C@@H](C)C(=O)C(C)(C)[C@@H](O)CC(=O)O1 [Epothilone B]
The note with it: top dose 0.032 µM; top dose inferred. How it is done:
as §1

Compound in assay [5]: NC(=O)Nc1sc(-c2ccc(F)cc2)cc1C(N)=O [TPCA-1]
The note with it: top dose 20 µM. How it is done: as §1

Compound in assay [6]: CN1CCN(CCOc2cc(OC3CCOCC3)c3c(Nc4c(Cl)ccc5c4OCO5)ncnc3c2)CC1 [AZD-0530]
Conditions: top dose 2 µM. How it is done: as §1

Compound in assay [7]: CCCS(=O)(=O)Nc1ccc(F)c(C(=O)c2c[nH]c3ncc(Cl)cc23)c1F [PLX4720]
Conditions: top dose 10 µM. How it is done: as §1

Compound in assay [8]: Cc1ccc(NC(=O)c2ccc(CN3CCN(C)CC3)cc2)cc1Nc1nccc(-c2cccnc2)n1 [Imatinib]
The note with it: top dose 2 µM. How it is done:
as §1

The mark [9] stands for this setting: screen: GDSC drug entry 1371, top dose inferred.

For HT-144 (melanoma, adherent), the AUC in assay [1] was 0.756; in assay [2], 0.97; in assay [3], 0.981; in assay [4], 0.497; in assay [5], 0.961; in assay [6], 0.955. Moreover, the results for the AUC in assay [7] (screen: GDSC drug entry 1036), in assay [7] (setting [9]) and in assay [8] were 0.544, 0.739 and 0.955, respectively. The IC50 in assay [1] was 7.58 µM; in assay [2], more than 20 µM; in assay [3], more than 10200 nM; in assay [4], 1.96 nM; in assay [5], more than 20 µM; in assay [6] it was more than 2000 nM. For the same cell line, the IC50 is 0.836 µM in assay [7] (screen: GDSC drug entry 1036), 3.31 µM in assay [7] (setting [9]) and more than 2000 nM in assay [8].
On to JM1 (B-cell lymphoma, suspension), for which the AUC stood at 0.986 in assay [1]; 0.887 in assay [2]; 0.463 in assay [3]; 0.711 in assay [4]; 0.678 in assay [5]; 0.981 in assay [6]. For the same cell line, the results for the AUC in assay [7] (screen: GDSC drug entry 1036), in assay [7] (setting [9]) and in assay [8] were 0.989, 0.986 and 0.99, respectively. The IC50 in assay [1] is more than 20 µM; in assay [2], 16.8 µM; in assay [3], 516 nM; in assay [4] it was 7.13 nM; in assay [5] it was 3.62 µM; in assay [6], more than 2000 nM. For the same cell line, the IC50 in assay [7] (screen: GDSC drug entry 1036) is more than 10 µM; in assay [7] (setting [9]) it was more than 10 µM; in assay [8] it was more than 2000 nM.
JVM-2 (lymphoid neoplasm, suspension): the AUC was 0.945 in assay [1]; 0.927 in assay [2]; 0.884 in assay [3]; 0.979 in assay [4]; 0.803 in assay [5]; 0.937 in assay [6]. Further, the AUC came out at 0.851 in assay [7] (screen: GDSC drug entry 1036), 0.847 in assay [7] (setting [9]) and 0.96 in assay [8]. The IC50 in assay [1] is more than 20 µM; in assay [2] it was more than 20 µM; in assay [3], more than 10200 nM; in assay [4] it was more than 32 nM; in assay [5] it was 12.7 µM; in assay [6] it was more than 2000 nM. The IC50 in assay [7] (screen: GDSC drug entry 1036) is more than 10 µM; in assay [7] (setting [9]) it was more than 10 µM; in assay [8], more than 2000 nM.
As to “KARPAS-45 (lymphoblastic leukaemia, suspension)”, the AUC amounted to 0.974 in assay [1]; 0.801 in assay [2]; 0.711 in assay [3]; 0.682 in assay [4]; 0.464 in assay [5]; 0.96 in assay [6]. Further, the values for the AUC in assay [7] (screen: GDSC drug entry 1036), in assay [7] (setting [9]) and in assay [8] were 0.893, 0.991 and 0.984, respectively. Further, the concentration for half-maximal inhibition (IC50) was more than 20 µM in assay [1]; 7.9 µM in assay [2]; 2240 nM in assay [3]; 1.01 µM in assay [5]; more than 2000 nM in assay [6]; 8.44 µM in assay [7] (screen: GDSC drug entry 1036). Besides, the IC50 in assay [7] (setting [9]) was more than 10 µM; in assay [8], more than 2000 nM.
As for “KMOE-2 (acute myeloid leukaemia, suspension)”, the AUC in assay [1] worked out at 0.971; in assay [2], 0.964; in assay [3], 0.701; in assay [4] it was 0.893; in assay [5], 0.845; in assay [6] it was 0.988. The AUC in assay [7] (screen: GDSC drug entry 1036) came out at 0.951; in assay [7] (setting [9]), 0.965; in assay [8], 0.99. In addition, the IC50 in assay [1] was more than 20 µM; in assay [2], more than 20 µM; in assay [3], 2190 nM; in assay [4], 30.9 nM; in assay [5], 12.2 µM; in assay [6], more than 2000 nM. Further, the IC50 in assay [7] (screen: GDSC drug entry 1036) is more than 10 µM; in assay [7] (setting [9]) it was more than 10 µM; in assay [8], more than 2000 nM.
Consider KNS-81-FD (glioma, adherent), for which the AUC in assay [1] was determined as 0.979; in assay [2] it was 0.964; in assay [3], 0.942; in assay [4], 0.876; in assay [5], 0.961; in assay [6] it was 0.981. Besides, the AUC in assay [7] (screen: GDSC drug entry 1036) was 0.877; in assay [7] (setting [9]), 0.961; in assay [8], 0.98. Also, the half-maximal inhibitory concentration (IC50) in assay [1] was more than 20 µM; in assay [2] it was more than 20 µM; in assay [3], more than 10200 nM; in assay [4], more than 32 nM; in assay [5], more than 20 µM; in assay [6], more than 2000 nM. Moreover, the values for the 50% inhibitory concentration (IC50) in assay [7] (screen: GDSC drug entry 1036), in assay [7] (setting [9]) and in assay [8] were more than 10 µM, more than 10 µM and more than 2000 nM, respectively.
L-363 (myeloma, suspension): the AUC in assay [1] was determined as 0.941; in assay [2] it was 0.91; in assay [3], 0.459; in assay [4], 0.684; in assay [5], 0.785; in assay [6], 0.989. The AUC in assay [7] (screen: GDSC drug entry 1036), in assay [7] (setting [9]) and in assay [8] was 0.99 in each case. In addition, the IC50 was more than 20 µM in assay [1]; more than 20 µM in assay [2]; 502 nM in assay [3]; 6.01 nM in assay [4]; 7.34 µM in assay [5]; more than 2000 nM in assay [6]. The IC50 in assay [7] (screen: GDSC drug entry 1036) was more than 10 µM; in assay [7] (setting [9]) it was more than 10 µM; in assay [8], more than 2000 nM.
